Experimental data published in the supplement of paper PMC12582362.
Counter-ions that a name gives are not always drawn. In all, about 1,500 compounds went through this assay and about 30 (2%) showed activity.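 Rule for the calls: active = robust z-score below -2; a few such results were not called.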 Some of the results follow.

System: optoTopBP1 Flp-In 293 T-REx (HEK293) cells
Experiment: light-induced TopBP1 condensate (nuclear foci) count, plate-normalised robust z-score vs non-control wells; higher = more TopBP1 condensates (negative = condensation inhibitor), active = hit call of the paper
Conditions: 10 µM; incubation time 2 h

SMILES	light-induced TopBP1 condensate (z-score)
CCCCC(O)c1ccccc1 (stereo not drawn) [Fenipentol]	inactive: -0.425
CC(N/C(=N\C#N)Nc1ccncc1)C(C)(C)C (stereo not drawn) [Pinacidil]	inactive: -0.688
COc1cc(C(=O)OCCCN2CCCN(CCCOC(=O)c3cc(OC)c(OC)c(OC)c3)CC2)cc(OC)c1OC [Dilazep dihydrochloride]	inactive: 0.49
O=C1c2c(O)cccc2Cc2cccc(O)c21 [Anthralin]	inactive: -0.589
C[C@@H]1C[C@H]2[C@@H]3C[C@H](F)C4=CC(=O)C=C[C@]4(C)[C@@]3(F)[C@@H](O)C[C@]2(C)[C@@]1(O)C(=O)CO [Flumethasone]	inactive: 0.794
O=C(O)Cc1ccc(-c2ccccc2)cc1 [Felbinac]	inactive: -0.83
O=C(O)c1cn(-c2ccc(F)cc2)c2cc(N3CCNCC3)c(F)cc2c1=O [Sarafloxacin]	inactive: 0.514
C[N+]1(C)CCC(OC(=O)C(O)(c2ccccc2)C2CCCC2)C1 (stereo not drawn) [Glycopyrrolate]	inactive: 0.0941
Clc1ccc(CCC(Cn2ccnc2)Sc2c(Cl)cccc2Cl)cc1 (stereo not drawn) [Butoconazole nitrate]	inactive: -0.455
N#Cc1ccc(C(c2ccc(C#N)cc2)n2cncn2)cc1 [Letrozole]	inactive: 0.389
NCc1ccccc1CC(=O)N[C@@H]1C(=O)N2C(C(=O)O)=C(CSc3nnnn3CC(=O)O)CS[C@H]12 [Ceforanide]	inactive: 0.483
N=C(NCCCCCCNC(=N)NC(=N)Nc1ccc(Cl)cc1)NC(=N)Nc1ccc(Cl)cc1 [Chlorhexidine]	inactive: 0.68
CN1CCN(C2=Nc3ccccc3Oc3ccc(Cl)cc32)CC1 [Loxapine succinate]	inactive: -0.0703
C#C[C@]1(O)CC[C@H]2[C@@H]3[C@H](C)CC4=C(CCC(=O)C4)[C@H]3CC[C@@]21C [Tibolone]	inactive: -0.176
O=C(O)COc1nn(Cc2ccccc2)c2ccccc12 [Bendazac]	inactive: -0.242
CC(=O)OCC(=O)[C@@]1(O)CC[C@H]2[C@@H]3CCC4=CC(=O)C=C[C@]4(C)[C@@]3(F)[C@@H](O)C[C@@]21C [Isoflupredone acetate]	inactive: 0.491
COc1cc(C(=O)N2CCOCC2)cc(OC)c1OC [Trimetozine]	inactive: 0.804
CN(C)CCCOc1nn(Cc2ccccc2)c2ccccc12 [Benzydamine hydrochloride]	inactive: -0.931
Cc1cc2nc3ccc(N(C)C)cc3[s+]c2cc1N [Tolonium chloride]	active: -9.72
Nc1ccc(S(=O)(=O)Nc2ccc(Cl)nn2)cc1 [Sulfachloropyridazine]	inactive: -0.653
COc1cc2nc(N3CCN(C(=O)C4CCCO4)CC3)nc(N)c2cc1OC (stereo not drawn) [Terazosin hydrochloride]	inactive: 0.637
C[N+]1(C)CCC(=C(c2ccccc2)c2ccccc2)CC1 [Diphemanil methylsulfate]	inactive: 0.515
NS(=O)(=O)c1cc2c(cc1Cl)NCNS2(=O)=O [Hydrochlorothiazide]	inactive: -0.0762

SMILES	light-induced TopBP1 condensate (z-score)
CN(C)CCC=C1c2ccccc2C=Cc2ccccc21 [Cyclobenzaprine hydrochloride]	inactive: 0.551
COc1ccc(-c2noc(CC(=O)O)c2-c2ccc(OC)cc2)cc1 [Mofezolac]	inactive: 0.854
CN(C)CCc1c[nH]c2ccc(C[C@H]3COC(=O)N3)cc12 [Zolmitriptan]	inactive: 0.251
O=c1[nH]c(=O)n([C@H]2C[C@H](O)[C@@H](CO)O2)cc1F [Floxuridine]	inactive: 0.191
CNNCc1ccc(C(=O)NC(C)C)cc1 [Procarbazine hydrochloride]	inactive: 0.0724
COc1cc(C)c(/C=C/C(C)=C/C=C/C(C)=C/C(=O)O)c(C)c1C [Acitretin]	inactive: 0.574
CC(C)OC(=O)CCC/C=C\C[C@@H]1[C@@H](CC[C@@H](O)CCc2ccccc2)[C@H](O)C[C@@H]1O [Latanoprost]	inactive: -0.272
CC(=O)Oc1cc(C(C)C)c(OCCN(C)C)cc1C [Moxisylyte hydrochoride]	inactive: 1.45
CC(c1cc2ccccc2s1)N(O)C(N)=O (stereo not drawn) [Zileuton]	inactive: 1.35
CCn1cc(C(=O)O)c(=O)c2cc(F)c(N3CCN(C)CC3)cc21 [Pefloxacine]	inactive: 1.26
Cc1ccc(S(=O)(=O)NCl)cc1 [Chloramine-T hydrate]	inactive: -1.44
COc1cc(N)cn[n+]1-c1ccccc1 [Amezinium metilsulfate]	inactive: 0.428
C[C@@H]1CN(c2c(F)c(N)c3c(=O)c(C(=O)O)cn(C4CC4)c3c2F)C[C@H](C)N1 [Sparfloxacin]	inactive: -0.367
C[C@]12C=CC(=O)C=C1CC[C@@H]1[C@@H]2C(=O)C[C@@]2(C)[C@H]1CC[C@]2(O)C(=O)CO [Prednisone]	inactive: 0.993
CS(=O)(=O)Nc1ccc([N+](=O)[O-])cc1Oc1ccccc1 [Nimesulide]	inactive: -0.0652
COc1cc(C)nc(-n2nc(C)cc2OC)n1 [Epirizole]	inactive: -0.0326
CCn1cc(C(=O)O)c(=O)c2cc(F)c(N3CCNC(C)C3)c(F)c21 (stereo not drawn) [Lomefloxacin hydrochloride]	inactive: 0.191
NC(=O)c1cc[n+](CC2=C(C(=O)O)N3C(=O)[C@@H](NC(=O)C(c4ccccc4)S(=O)(=O)[O-])[C@H]3SC2)cc1 (stereo partly drawn) [Cefsulodin Sodium Salt Hydrate]	inactive: -0.446
CNC(=C[N+](=O)[O-])NCCSCc1csc(CN(C)C)n1 [Nizatidine]	inactive: -0.771
CC(C)CN(C[C@@H](O)[C@H](Cc1ccccc1)NC(=O)O[C@H]1CCOC1)S(=O)(=O)c1ccc(N)cc1 [Amprenavir]	inactive: 1.18
CNCCC=C1c2ccccc2CCc2ccccc21 [Nortriptyline hydrochloride]	inactive: -0.909
C[C@H]1[C@H](NC(=O)/C(=N\OC(C)(C)C(=O)O)c2csc(N)n2)C(=O)N1S(=O)(=O)O [Aztreonam]	inactive: -0.276
CCc1c2c(nc3ccc(OC(=O)N4CCC(N5CCCCC5)CC4)cc13)-c1cc3c(c(=O)n1C2)COC(=O)[C@]3(O)CC [Irinotecan hydrochloride trihydrate]	inactive: 1.07

SMILES	light-induced TopBP1 condensate (z-score)
CC(C)(O/N=C(\C(=O)N[C@@H]1C(=O)N2C(C(=O)[O-])=C(C[n+]3ccccc3)CS[C@H]12)c1csc(N)n1)C(=O)O [Ceftazidime pentahydrate]	inactive: 0.278
Cc1c(Cl)cccc1Nc1ncccc1C(=O)O [Clonixin Lysinate]	inactive: 0.77
CCc1oc2ccccc2c1C(=O)c1cc(I)c(O)c(I)c1 [Benziodarone]	inactive: -0.0729
CN1CCN(C(c2ccccc2)c2ccc(Cl)cc2)CC1 (stereo not drawn) [Chlorcyclizine hydrochloride]	inactive: 0.227
O=C(N/N=C/c1ccc([N+](=O)[O-])o1)c1ccc(O)cc1 [Nifuroxazide]	inactive: -1.09
CC(C)(C)NCC(O)CSc1nc(-c2ccc(C(N)=O)s2)cs1 (stereo not drawn) [Arotinolol hydrochloride]	inactive: -0.455
NC(=O)c1ncn([C@@H]2O[C@H](CO)[C@@H](O)[C@H]2O)c1O [Mizoribine]	inactive: -0.419
CCC(=O)[C@@]1(C)[C@H](C)C[C@H]2[C@@H]3CCC4=CC(=O)C=C[C@]4(C)[C@H]3[C@@H](O)C[C@@]21C [Rimexolone]	inactive: -0.191
CC(=O)Nc1c(I)c(NC(C)=O)c(I)c(C(=O)O)c1I [Diatrizoic acid dihydrate]	inactive: -0.965
CCc1cc(C(N)=S)ccn1 [Ethionamide]	inactive: 0.448
CN(N=O)C(=O)N[C@@H](C=O)[C@@H](O)[C@H](O)[C@H](O)CO [Streptozotocin]	inactive: 1.22
N[C@H](Cc1ccccc1)C(=O)O [D-phenylalanine]	inactive: -1.1
CCOC(=O)Nc1ccc2c(c1)N(C(=O)CCN1CCOCC1)c1ccccc1S2 [Moricizine hydrochloride]	inactive: 2.02
COC(=O)[C@H]1[C@H]2C[C@@H]3c4[nH]c5cc(OC)ccc5c4CCN3C[C@H]2C[C@@H](OC(=O)c2cc(OC)c(OC)c(OC)c2)[C@@H]1OC [Reserpine]	inactive: -0.957
CC(C)C[C@H](NC(=O)[C@@H](O)[C@H](N)Cc1ccccc1)C(=O)O [Ubenimex]	inactive: -0.837
CCOC(=O)[C@H](CCc1ccccc1)N[C@@H](C)C(=O)N1[C@H](C(=O)O)C[C@H]2CCCC[C@@H]21 [Trandolapril]	inactive: 0.596
CCOc1ccccc1C(N)=O [Ethenzamide]	inactive: -0.0402
CCN(CC)CCCC(C)Nc1c2ccc(Cl)cc2nc2ccc(OC)cc12 (stereo not drawn) [Quinacrine dihydrochloride hydrate]	active: -3.15
Cc1nc(C)c(Cl)c(O)c1Cl [Clopidol]	inactive: 0.31
CCCCCCCCCCCCCCCC[N+](C)(C)CCN(Cc1ccc(OC)cc1)c1ncccn1 [Thonzonium bromide]	active: -2.49
CC(C)NCC(O)c1ccc(NS(C)(=O)=O)cc1 (stereo not drawn) [Sotalol hydrochloride]	inactive: -0.108
C#C[C@]1(O)CC[C@H]2[C@@H]3CCc4cc(OC)ccc4[C@H]3CC[C@@]21C [Ethynylestradiol 3-methyl ether]	inactive: -0.145
